Reference: article PMC6451091
The list shows a part of the results. For part of these data: At the low end of the ranking the order means little. For part of these data: Measured with an extract: partners may take part in the binding.

Experiments:
Settings in all cases: 20 mM HEPES pH 7.9, 100 mM NaCl, 1 mM DTT, 0.2 mg/mL BSA, 0.02% Triton X-100, 2% milk, 0.4 mg/mL salmon testes DNA; 1 h; temperature not stated; high values mean tight binding; double strand, one strand shown; sequences stand for … in GCCTAGCAC…GTGCTAGGTCTTGATTCGCTTGACGCTGCTG
[1] = biological target: PU.1 (IVT) (UniProt P17947); test: protein-binding microarray (PBM)
[2] = biological target: PU.1 (endogenous, THP-1 nuclear extract) (UniProt P17947); test: nuclear extract protein-binding microarray (nextPBM)
[3] = biological target: T1, FLI1 (endogenous, THP-1 nuclear extract) (UniProt Q01543); test: as above
T1 sequence: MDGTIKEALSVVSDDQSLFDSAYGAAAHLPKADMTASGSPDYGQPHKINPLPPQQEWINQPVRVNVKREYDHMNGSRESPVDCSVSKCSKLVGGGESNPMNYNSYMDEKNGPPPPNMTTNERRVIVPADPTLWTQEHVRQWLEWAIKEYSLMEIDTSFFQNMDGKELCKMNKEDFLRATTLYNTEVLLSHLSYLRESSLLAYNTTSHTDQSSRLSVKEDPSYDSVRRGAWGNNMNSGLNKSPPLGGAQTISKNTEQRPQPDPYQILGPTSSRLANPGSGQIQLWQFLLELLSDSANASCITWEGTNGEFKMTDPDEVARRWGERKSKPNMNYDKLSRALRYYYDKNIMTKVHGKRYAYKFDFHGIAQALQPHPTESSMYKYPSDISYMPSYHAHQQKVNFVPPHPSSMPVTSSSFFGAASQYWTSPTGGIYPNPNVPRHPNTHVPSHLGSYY

Sequence: AGAAGAAGGAAGTACTGTGA
- binding signal [1]: 4.7 z-score
- binding signal [2]: 4.77 z-score
- binding signal [3]: 2.04 z-score

Sequence: AAAAAAGGGAAGTGAAGTAC
- binding signal [1]: 7.2 z-score
- binding signal [2]: 6.9 z-score
- binding signal [3]: 2.78 z-score

Sequence: AAATAAAGGAAGTGAAACTC
- binding signal [1]: 4.59 z-score
- binding signal [2]: 6.85 z-score
- binding signal [3]: 3.54 z-score

Sequence: AAAATGAGGAAGTGTGATTA
- binding signal [1]: 7.8 z-score
- binding signal [2]: 7.36 z-score
- binding signal [3]: 3.52 z-score

Sequence: ATGGAGAGGAAGTGTGCTGG
- binding signal [1]: 3.66 z-score
- binding signal [2]: 3.34 z-score
- binding signal [3]: 2.85 z-score

Sequence: GAAAAGAGGAAGGGGGTGAG
- binding signal [1]: 4.67 z-score
- binding signal [2]: 5.36 z-score
- binding signal [3]: 1.74 z-score

Sequence: CTGAAGAGGAACTGAACTTA
- binding signal [1]: 3.42 z-score
- binding signal [2]: 3.7 z-score
- binding signal [3]: 1.54 z-score

Sequence: AATAGGAGGAAGTGGCAAGT
- binding signal [1]: 4.68 z-score
- binding signal [2]: 5.05 z-score
- binding signal [3]: 2.91 z-score

Sequence: CCAATGAGGAAGAGAAAAAA
- binding signal [1]: 2.26 z-score
- binding signal [2]: 2.27 z-score
- binding signal [3]: 1.04 z-score

Sequence: GAAATAAGGAAGTGCTCAGA
- binding signal [1]: 6.31 z-score
- binding signal [2]: 6.63 z-score
- binding signal [3]: 2.42 z-score

Sequence: GTCAAGAGGAACTACTGTGG
- binding signal [1]: 3.7 z-score
- binding signal [2]: 3.22 z-score
- binding signal [3]: 1.23 z-score

Sequence: AGAGAGAGGAAGTGATTACA
- binding signal [1]: 4.98 z-score
- binding signal [2]: 4.74 z-score
- binding signal [3]: 2.99 z-score

Sequence: GATAAGCGGAAGTCCTCTGT
- binding signal [1]: 6 z-score
- binding signal [2]: 6.48 z-score
- binding signal [3]: 4.34 z-score

Sequence: AGAAAGAGGAAGTGCCTCTT
- binding signal [1]: 8.4 z-score
- binding signal [2]: 7.53 z-score
- binding signal [3]: 4.22 z-score

Sequence: TAAATGAGGAAGTGTAGGGA
- binding signal [1]: 7.59 z-score
- binding signal [2]: 7.45 z-score
- binding signal [3]: 3.93 z-score

Sequence: CAAATGAGGAAGTGATGCGG
- binding signal [1]: 8.08 z-score
- binding signal [2]: 7.2 z-score
- binding signal [3]: 4.15 z-score

Sequence: CGAAAGGGGAAGTGCGAAAC
- binding signal [1]: 6.97 z-score
- binding signal [2]: 7 z-score
- binding signal [3]: 3.15 z-score

Sequence: CGAAAGTGGAAGTGCTAAAC
- binding signal [1]: 3.35 z-score
- binding signal [2]: 2.88 z-score
- binding signal [3]: 1.8 z-score

Sequence: TGAAAGTGGAAGTGCAACCA
- binding signal [1]: 3.09 z-score
- binding signal [2]: 3.01 z-score
- binding signal [3]: 1.26 z-score

Sequence: GATAAGAGGAAGGCCTCTGT
- binding signal [1]: 1.63 z-score
- binding signal [2]: 2.24 z-score
- binding signal [3]: 0.928 z-score

Sequence: AAAGGGAGGAAGTGGTTGAA
- binding signal [1]: 4.01 z-score
- binding signal [2]: 3.45 z-score
- binding signal [3]: 3.05 z-score

Sequence: GAAAACAGAAAGTCCCATAG
- binding signal [1]: -0.173 z-score
- binding signal [2]: -0.393 z-score
- binding signal [3]: 0.33 z-score

Sequence: AAAAAAAGGAGCTGGCTAGA
- binding signal [1]: -0.309 z-score
- binding signal [2]: -0.0278 z-score
- binding signal [3]: -0.433 z-score

Sequence: CTGCAGAGGAAGTGGACCAC
- binding signal [1]: 2.66 z-score
- binding signal [2]: 2.86 z-score
- binding signal [3]: 2.71 z-score

Sequence: CAAAAAGGGAAGCGGATGCT
- binding signal [1]: 3.71 z-score
- binding signal [2]: 4.29 z-score
- binding signal [3]: 3.12 z-score

Sequence: AGAATGAGGAACTAGATGAA
- binding signal [1]: 6.45 z-score
- binding signal [2]: 6.53 z-score
- binding signal [3]: 2.31 z-score

Sequence: AAAAAGGGGAAGTGCTTTCT
- binding signal [1]: 8.76 z-score
- binding signal [2]: 7.48 z-score
- binding signal [3]: 3.89 z-score

Sequence: CAACTGAGGAACTGATGCGG
- binding signal [1]: 1.56 z-score
- binding signal [2]: 1.49 z-score
- binding signal [3]: 0.502 z-score

Sequence: AAATAGGGGAAGTGTGTACA
- binding signal [1]: 6.09 z-score
- binding signal [2]: 6.44 z-score
- binding signal [3]: 2.87 z-score

Sequence: TAGATGAGGAAGTACTGTGC
- binding signal [1]: 6.57 z-score
- binding signal [2]: 6.46 z-score
- binding signal [3]: 2.79 z-score

Sequence: GGAGAGAGGAAGTAACAAGT
- binding signal [1]: 4.91 z-score
- binding signal [2]: 5.26 z-score
- binding signal [3]: 2.69 z-score

Sequence: AAAATGAGGAAGTCAAAACA
- binding signal [1]: 7.95 z-score
- binding signal [2]: 7.56 z-score
- binding signal [3]: 3.36 z-score

Sequence: CTATTCAGGAAGTGGCAATT
- binding signal [1]: 2.71 z-score
- binding signal [2]: 2.84 z-score
- binding signal [3]: 3.78 z-score

Sequence: CAAAAGAGGAAGAGTCTGAC
- binding signal [1]: 4.26 z-score
- binding signal [2]: 5.02 z-score
- binding signal [3]: 1.74 z-score

Sequence: TCAAAGAGGAAGTGACTTCG
- binding signal [1]: 6.71 z-score
- binding signal [2]: 6.78 z-score
- binding signal [3]: 3.7 z-score

Sequence: AGAATAAGGAAGTGGCTAAT
- binding signal [1]: 5.85 z-score
- binding signal [2]: 6.23 z-score
- binding signal [3]: 2.39 z-score

Sequence: TGAAAGAGGAACTCTCACAT
- binding signal [1]: 4.89 z-score
- binding signal [2]: 5.6 z-score
- binding signal [3]: 1.47 z-score

Sequence: TCAGGGAGGAAGTAGGTTGG
- binding signal [1]: 3.95 z-score
- binding signal [2]: 4.25 z-score
- binding signal [3]: 2.91 z-score

Sequence: GAGAAGAGGAAGTGCTGGGT
- binding signal [1]: 6.5 z-score
- binding signal [2]: 6.69 z-score
- binding signal [3]: 3.26 z-score

Sequence: AGGGAGAGGAAGTGTGTCTG
- binding signal [1]: 3.65 z-score
- binding signal [2]: 3.48 z-score
- binding signal [3]: 2.54 z-score

Sequence: GCAGACAGGAAGTGGGAATT
- binding signal [1]: 2.96 z-score
- binding signal [2]: 3.05 z-score
- binding signal [3]: 5.58 z-score

Sequence: TGAAAGAGAAAGTGCAACCA
- binding signal [1]: -0.224 z-score
- binding signal [2]: -0.4 z-score
- binding signal [3]: -0.294 z-score

Sequence: ACGAAGAGGAAGTCCAGGAT
- binding signal [1]: 4.52 z-score
- binding signal [2]: 5.35 z-score
- binding signal [3]: 3.42 z-score

Sequence: GATAAGAGGAAGTGACACAA
- binding signal [1]: 6.19 z-score
- binding signal [2]: 6.61 z-score
- binding signal [3]: 2.94 z-score

Sequence: TAAAAGAGGAAGTGCAACCA
- binding signal [1]: 8.29 z-score
- binding signal [2]: 7.67 z-score
- binding signal [3]: 4.91 z-score

Sequence: ACAAAAAGGAAATGTGCCCC
- binding signal [1]: 1.02 z-score
- binding signal [2]: 0.719 z-score
- binding signal [3]: 1.68 z-score

Sequence: GAAAACGGGAAGTGAAGCAG
- binding signal [1]: 7.56 z-score
- binding signal [2]: 7.13 z-score
- binding signal [3]: 3.17 z-score

Sequence: CGACAGGGGAAGTGCTAAAC
- binding signal [1]: 3.21 z-score
- binding signal [2]: 2.84 z-score
- binding signal [3]: 1.72 z-score

Sequence: AAAAAGCAGAAGTGTTCTGT
- binding signal [1]: 6.88 z-score
- binding signal [2]: 6.72 z-score
- binding signal [3]: 2.53 z-score

Sequence: TATAAGAGGAACTGAAAGGA
- binding signal [1]: 3.64 z-score
- binding signal [2]: 4.29 z-score
- binding signal [3]: 1.67 z-score

Sequence: GACAAGAGGAAGTCCTCTGT
- binding signal [1]: 4.55 z-score
- binding signal [2]: 5.02 z-score
- binding signal [3]: 2.63 z-score

Sequence: AAAAAGAGGAAGTGATGACC
- binding signal [1]: 8.84 z-score
- binding signal [2]: 7.31 z-score
- binding signal [3]: 4.74 z-score

Sequence: AAAAAGAGGAAATGAAAAGA
- binding signal [1]: 6.67 z-score
- binding signal [2]: 6.73 z-score
- binding signal [3]: 3.51 z-score

Sequence: AAAAAAAGGAAATACTGTGA
- binding signal [1]: 3.25 z-score
- binding signal [2]: 2.13 z-score
- binding signal [3]: 1.63 z-score

Sequence: AAAAACAGGAAGTCCATTTC
- binding signal [1]: 7.59 z-score
- binding signal [2]: 7.24 z-score
- binding signal [3]: 4.75 z-score

Sequence: GTAAGAAGGAAGTGAATCTA
- binding signal [1]: 3.33 z-score
- binding signal [2]: 3.48 z-score
- binding signal [3]: 2.37 z-score

Sequence: TAAATGAGGAAGTGCTCCAT
- binding signal [1]: 8.21 z-score
- binding signal [2]: 7.41 z-score
- binding signal [3]: 3.42 z-score

Sequence: GTAAAGAGGAAGTGGAAGAA
- binding signal [1]: 6.97 z-score
- binding signal [2]: 6.8 z-score
- binding signal [3]: 3.81 z-score

Sequence: AGGCAGGGGAAGTGGCCGTC
- binding signal [1]: 3.22 z-score
- binding signal [2]: 2.77 z-score
- binding signal [3]: 2.15 z-score

Sequence: GAAAACAGGAAGTGGGCATT
- binding signal [1]: 7.54 z-score
- binding signal [2]: 7.16 z-score
- binding signal [3]: 5.65 z-score
